# From the supplement of paper PMC8728848
# The other results are listed elsewhere or left out.
# B1: AT1G73650(15) (Arabidopsis thaliana), F4HRY1 (protein)
# chain: MGTVLDSHFLALTAIVTVIYQFIFFVITALFKFDQVTDFAGSTNFVILAVLTLVLKASWHFRQIVLTLLVVVWGLRLGIFLLMETRILQWGEDRRFDEQRGNIVRLIIFWTLQAVWVWTVSLPLTLVNASDGGGSLKPADVIGWTMETWVFGFLIEAAADQQKLSFKNSPENRGKWCDVGVWKYSRHPNYFGEMETLLWWGIFVAASPVLEGAEYLVIFGPLFLTLLLLFVSGIPLLEASADKKHGNSGAYRSYKKTTSPLILFPRGVYGNLPGWFKTVFLFEFPFYSRNLPQEGRLQNSKEKEVKDD
# Columns and labels:
# Assay in all cases: glycan array binding signal (z-score within array); higher = stronger binding
# Settings in all cases: glycan notation: IUPAC condensed, linker removed
# Fuc(a1-2)Gal = target: Fuc(a1-2)Gal
# How it was run: (§1)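 The binding signal is a Z-score computed within each array. Data were drawn from 3228 arrays in the Consortium for Functional Glycomics database, restricted to those with a known protein sequence. Scores were averaged over arrays of the same protein sequence at different concentrations or buffers, and over linkers, and negative values can be taken as non-binding.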
# Fuc(a1-2)Gal(b1-3)GalNAc = target: Fuc(a1-2)Gal(b1-3)GalNAc
# How it was run: as §1
# [1] = target: Fuc(a1-2)Gal(b1-3)GalNAc(a1-3)[Fuc(a1-2)]Gal(b1-4)Glc
# How it was run: as §1
# [2] = target: Fuc(a1-2)Gal(b1-3)GalNAc(a1-3)[Fuc(a1-2)]Gal(b1-4)GlcNAc
# How it was run: as §1
# [3] = target: Fuc(a1-2)Gal(b1-3)GalNAc(b1-3)Gal
# How it was run: as §1
# [4] = target: Fuc(a1-2)Gal(b1-3)GalNAc(b1-3)Gal(a1-4)Gal(b1-4)Glc
# How it was run: as §1
# [5] = target: Fuc(a1-2)Gal(b1-3)GalNAc(b1-4)[Neu5Ac(a2-3)]Gal(b1-4)Glc
# How it was run: as §1
# Fuc(a1-2)Gal(b1-3)GlcNAc = target: Fuc(a1-2)Gal(b1-3)GlcNAc
# How it was run: as §1
# [6] = target: Fuc(a1-2)Gal(b1-3)GlcNAc(b1-2)Man(a1-3)[Fuc(a1-2)Gal(b1-3)GlcNAc(b1-2)Man(a1-6)]Man(b1-4)GlcNAc(b1-4)GlcNAc
# How it was run: as §1
# [7] = target: Fuc(a1-2)Gal(b1-3)GlcNAc(b1-2)Man(a1-3)[Fuc(a1-2)Gal(b1-3)GlcNAc(b1-2)Man(a1-6)]Man(b1-4)GlcNAc(b1-4)[Fuc(a1-6)]GlcNAc
# How it was run: as §1
# [8] = target: Fuc(a1-2)Gal(b1-3)GlcNAc(b1-3)Gal(b1-4)Glc
# How it was run: as §1
# [9] = target: Fuc(a1-2)Gal(b1-3)GlcNAc(b1-3)GalNAc
# How it was run: as §1
# [10] = target: Fuc(a1-2)Gal(b1-3)GlcNAc(b1-3)[Fuc(a1-2)Gal(b1-3)GlcNAc(b1-6)]GalNAc
# How it was run: as §1
# [11] = target: Fuc(a1-2)Gal(b1-3)GlcNAc(b1-3)[Gal(b1-4)GlcNAc(b1-6)]Gal(b1-4)Glc
# How it was run: as §1
# [12] = target: Fuc(a1-2)Gal(b1-3)GlcNAc(b1-3)[Neu5Ac(a2-6)Gal(b1-4)GlcNAc(b1-6)]Gal(b1-4)Glc
# How it was run: as §1
# [13] = target: Fuc(a1-2)Gal(b1-3)GlcNAc6S
# How it was run: as §1
# [14] = target: Fuc(a1-2)Gal(b1-3)[Fuc(a1-4)]GlcNAc
# How it was run: as §1
# [15] = target: Fuc(a1-2)Gal(b1-3)[Fuc(a1-4)]GlcNAc(b1-2)Man(a1-3)[Fuc(a1-2)Gal(b1-3)[Fuc(a1-4)]GlcNAc(b1-2)Man(a1-3)]Man(b1-4)GlcNAc(b1-4)GlcNAc
# How it was run: as §1
# [16] = target: Fuc(a1-2)Gal(b1-3)[Fuc(a1-4)]GlcNAc(b1-2)Man(a1-3)[Fuc(a1-2)Gal(b1-3)[Fuc(a1-4)]GlcNAc(b1-2)Man(a1-6)]Man(b1-4)GlcNAc(b1-4)[Fuc(a1-6)]GlcNAc(b1-4)[Fuc(a1-6)]GlcNAc
# How it was run: as §1
# [17] = target: Fuc(a1-2)Gal(b1-3)[Fuc(a1-4)]GlcNAc(b1-3)[Fuc(a1-3)[Gal(b1-4)]GlcNAc(b1-6)]Gal(b1-4)Glc
# How it was run: as §1
# [18] = target: Fuc(a1-2)Gal(b1-3)[Fuc(a1-4)]GlcNAc(b1-3)[Gal(b1-4)GlcNAc(b1-6)]Gal(b1-4)Glc
# How it was run: as §1
# [19] = target: Fuc(a1-2)Gal(b1-4)Fuc(a1-3)]GlcNAc(b1-2)Man(a1-3)[Fuc(a1-2)Gal(b1-4)[Fuc(a1-3)]GlcNAc(b1-2)Man(a1-6)]Man(b1-4)GlcNAc(b1-4)GlcNAc
# How it was run: as §1
# Fuc(a1-2)Gal(b1-4)Glc = target: Fuc(a1-2)Gal(b1-4)Glc
# How it was run: as §1
# Fuc(a1-2)Gal(b1-4)Glc6S = target: Fuc(a1-2)Gal(b1-4)Glc6S
# How it was run: as §1
# Fuc(a1-2)Gal(b1-4)GlcNAc = target: Fuc(a1-2)Gal(b1-4)GlcNAc
# How it was run: as §1
# [20] = target: Fuc(a1-2)Gal(b1-4)GlcNAc(b1-2)Man
# How it was run: as §1
# [21] = target: Fuc(a1-2)Gal(b1-4)GlcNAc(b1-2)Man(a1-3)[Fuc(a1-2)Gal(b1-4)GlcNAc(b1-2)Man(a1-6)]Man(b1-4)GlcNAc(b1-4)GlcNAc
# How it was run: as §1
# [22] = target: Fuc(a1-2)Gal(b1-4)GlcNAc(b1-2)Man(a1-3)[Fuc(a1-2)Gal(b1-4)GlcNAc(b1-2)Man(a1-6)]Man(b1-4)GlcNAc(b1-4)[Fuc(a1-6)]GlcNAc
# How it was run: as §1
# [23] = target: Fuc(a1-2)Gal(b1-4)GlcNAc(b1-2)[Fuc(a1-2)Gal(b1-4)GlcNAc(b1-4)]Man(a1-3)[Fuc(a1-2)Gal(b1-4)GlcNAc(b1-2)Man(a1-6)]Man(b1-4)GlcNAc(b1-4)GlcNAc
# How it was run: as §1
# [24] = target: Fuc(a1-2)Gal(b1-4)GlcNAc(b1-3)Gal(b1-4)GlcNAc
# How it was run: as §1
# [25] = target: Fuc(a1-2)Gal(b1-4)GlcNAc(b1-3)Gal(b1-4)GlcNAc(b1-2)Man(a1-3)[Fuc(a1-2)Gal(b1-4)GlcNAc(b1-3)Gal(b1-4)GlcNAc(b1-2)Man(a1-6)]Man(b1-4)GlcNAc(b1-4)GlcNAc
# How it was run: as §1
# [26] = target: Fuc(a1-2)Gal(b1-4)GlcNAc(b1-3)Gal(b1-4)GlcNAc(b1-3)Gal(b1-4)GlcNAc
# How it was run: as §1
# [27] = target: Fuc(a1-2)Gal(b1-4)GlcNAc(b1-3)GalNAc
# How it was run: as §1
# [28] = target: Fuc(a1-2)Gal(b1-4)GlcNAc(b1-3)[Fuc(a1-2)Gal(b1-4)GlcNAc(b1-6)]GalNAc
# How it was run: as §1
# [29] = target: Fuc(a1-2)Gal(b1-4)GlcNAc(b1-3)[Fuc(a1-3)[Gal(b1-4)]GlcNAc(b1-6)]Gal(b1-4)Glc
# How it was run: as §1
# [30] = target: Fuc(a1-2)Gal(b1-4)GlcNAc(b1-6)GalNAc
# How it was run: as §1
# [31] = target: Fuc(a1-2)Gal(b1-4)GlcNAc6S
# How it was run: as §1
# [32] = target: Fuc(a1-2)Gal(b1-4)[Fuc(a1-3)]GlcNAc
# How it was run: as §1
# [33] = target: Fuc(a1-2)Gal(b1-4)[Fuc(a1-3)]GlcNAc(b1-2)Man(a1-3)[Fuc(a1-2)Gal(b1-4)[Fuc(a1-3)]GlcNAc(b1-2)Man(a1-6)]Man(b1-4)GlcNAc(b1-4)[Fuc(a1-6)]GlcNAc
# How it was run: as §1
# [34] = target: Fuc(a1-2)Gal(b1-4)[Fuc(a1-3)]GlcNAc(b1-2)[Fuc(a1-2)Gal(b1-4)[Fuc(a1-3)]GlcNAc(b1-4)]Man(a1-3)[Fuc(a1-2)Gal(b1-4)[Fuc(a1-3)]GlcNAc(b1-2)Man(a1-6)]Man(b1-4)GlcNAc(b1-4)GlcNAc
# How it was run: as §1
# [35] = target: Fuc(a1-2)Gal(b1-4)[Fuc(a1-3)]GlcNAc(b1-3)Gal(b1-4)[Fuc(a1-3)]GlcNAc
# How it was run: as §1
# [36] = target: Fuc(a1-2)Gal(b1-4)[Fuc(a1-3)]GlcNAc(b1-3)Gal(b1-4)[Fuc(a1-3)]GlcNAc(b1-3)Gal(b1-4)[Fuc(a1-3)]GlcNAc
# How it was run: as §1
# [37] = target: Fuc(a1-2)Gal(b1-4)[Fuc(a1-3)]GlcNAc(b1-3)GalNAc
# How it was run: as §1
# [38] = target: Fuc(a1-2)Gal(b1-4)[Fuc(a1-3)]GlcNAc(b1-3)[Neu5Ac(a2-6)Gal(b1-4)GlcNAc(b1-6)]Gal(b1-4)Glc
# How it was run: as §1
# [39] = target: Fuc(a1-2)Gal3S(b1-4)GlcNAc
# How it was run: as §1
binder,measurement,setting,value
B1,glycan array binding signal (z-score),Fuc(a1-2)Gal,-0.099
same,glycan array binding signal (z-score),Fuc(a1-2)Gal(b1-3)GalNAc,-0.344
same,glycan array binding signal (z-score),[1],-0.462
same,glycan array binding signal (z-score),[2],-0.412
same,glycan array binding signal (z-score),[3],-0.375
same,glycan array binding signal (z-score),[4],-0.432
same,glycan array binding signal (z-score),[5],-0.055
same,glycan array binding signal (z-score),Fuc(a1-2)Gal(b1-3)GlcNAc,-0.573
same,glycan array binding signal (z-score),[6],-0.126
same,glycan array binding signal (z-score),[7],0.402
same,glycan array binding signal (z-score),[8],-0.499
same,glycan array binding signal (z-score),[9],-0.598
same,glycan array binding signal (z-score),[10],0.694
same,glycan array binding signal (z-score),[11],-0.427
same,glycan array binding signal (z-score),[12],-0.388
same,glycan array binding signal (z-score),[13],-0.365
same,glycan array binding signal (z-score),[14],-0.478
same,glycan array binding signal (z-score),[15],1.82
same,glycan array binding signal (z-score),[16],-0.621
same,glycan array binding signal (z-score),[17],-0.434
same,glycan array binding signal (z-score),[18],-0.282
same,glycan array binding signal (z-score),[19],-0.176
same,glycan array binding signal (z-score),Fuc(a1-2)Gal(b1-4)Glc,-0.406
same,glycan array binding signal (z-score),Fuc(a1-2)Gal(b1-4)Glc6S,0.018
same,glycan array binding signal (z-score),Fuc(a1-2)Gal(b1-4)GlcNAc,-0.194
same,glycan array binding signal (z-score),[20],-0.619
same,glycan array binding signal (z-score),[21],-0.062
same,glycan array binding signal (z-score),[22],-0.028
same,glycan array binding signal (z-score),[23],-0.549
same,glycan array binding signal (z-score),[24],-0.393
same,glycan array binding signal (z-score),[25],-0.657
same,glycan array binding signal (z-score),[26],-0.547
same,glycan array binding signal (z-score),[27],1.03
same,glycan array binding signal (z-score),[28],2.33
same,glycan array binding signal (z-score),[29],1.18
same,glycan array binding signal (z-score),[30],-0.607
same,glycan array binding signal (z-score),[31],-0.344
same,glycan array binding signal (z-score),[32],0.014
same,glycan array binding signal (z-score),[33],-0.453
same,glycan array binding signal (z-score),[34],-0.475
same,glycan array binding signal (z-score),[35],-0.182
same,glycan array binding signal (z-score),[36],-0.048
same,glycan array binding signal (z-score),[37],1.71
same,glycan array binding signal (z-score),[38],-0.273
same,glycan array binding signal (z-score),[39],-0.151
